In PubChem BioAssay (NCATS):
Where “and” joins values, the source holds several entries; their conditions need not be identical. Equal values may be shown once. The shares of active, inactive and inconclusive entries below differ from those in the screen. A potency beside an inconclusive call is a rough fit, not a confirmed value. Calls of active or inactive are those of the source. The call rests on the fitted dose curve; in most records, active means well fitted cell-killing curve with a large enough effect; inconclusive means small, poorly fitted or top-dose-only effect, or effect the other way; inactive means flat fitted curve, though single readings scatter.

Columns and labels:
Experiment in all cases: Primary qHTS to identify gynecologic anti-cancer compounds using libraries of approved drugs and bioactive compounds (AID 1345084); further: nearly all actives have a fitted effect of over 55% in size
Hek293T = conditions: Gynecologic cancer cell panel viability, ATPlite luminescence, 48 h, control line for the selectivity index; series mostly up to 57.5 µM
How it was run: (§1)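 Cytotoxicity screen measuring ATP content by luciferase luminescence. Each compound is applied at five concentrations for 48 h at 37 C with 5% CO2.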

JEG-3 = conditions: Gynecologic cancer cell panel viability, ATPlite luminescence, 48 h; series mostly up to 57.5 µM
How it was run: as §1

PA-1 = conditions: Gynecologic cancer cell panel viability, ATPlite luminescence, 48 h; series mostly up to 57.5 µM
How it was run: as §1

SKOV3 = conditions: Gynecologic cancer cell panel viability, ATPlite luminescence, 48 h; series mostly up to 57.5 µM
How it was run: as §1

Tov-21-G = conditions: Gynecologic cancer cell panel viability, ATPlite luminescence, 48 h; series mostly up to 57.5 µM
How it was run: as §1

Tov112D = conditions: Gynecologic cancer cell panel viability, ATPlite luminescence, 48 h; series mostly up to 57.5 µM
How it was run: as §1

OV90 = conditions: Gynecologic cancer cell panel viability, ATPlite luminescence, 48 h; series mostly up to 57.5 µM
How it was run: as §1
Potency means the concentration at half of the fitted maximal effect; tags describe the fitted curve by direction and shape.

Compound: CN(C)CCCN1c2ccccc2Sc2ccc(Cl)cc21
- Potency (Hek293T): inconclusive: 39.8 µM [cytotoxic, single point]
- Potency (JEG-3): inconclusive: 39.8 µM [cytotoxic, single point]
- Potency (PA-1): inconclusive: 39.8 µM [cytotoxic, single point]
- Potency (SKOV3): inconclusive: 31.6 µM [cytotoxic, single point]
- Potency (Tov-21-G): inconclusive: 39.8 µM [cytotoxic, single point]
- Potency (Tov112D): inconclusive: 31.6 µM [cytotoxic, partial curve, poor fit]

Compound: CNCCC(Oc1ccc(C(F)(F)F)cc1)c1ccccc1 (centres undefined)
- Potency (Hek293T): inconclusive: 31.6 µM [cytotoxic, single point]
- Potency (OV90): inconclusive: 35.5 µM [cytotoxic, single point]
- Potency (PA-1): inconclusive: 39.8 µM [cytotoxic, single point]
- Potency (SKOV3): inconclusive: 39.8 µM [cytotoxic, single point]
- Potency (Tov-21-G): inconclusive: 28.2 µM [cytotoxic, single point]

Compound: CCCCCCCCCCCCCCCC[N+](C)(C)CC
- Potency (Hek293T): inconclusive: 20 µM [cytotoxic, partial curve, poor fit]
- Potency (JEG-3): inconclusive: 39.8 µM [cytotoxic, single point]
- Potency (PA-1): active: 10 µM
- Potency (SKOV3): active: 2.51 µM

Compound: CCCCCCCCCCCCCCCC[n+]1ccccc1
- Potency (Hek293T): active: 8.91 µM
- Potency (JEG-3): inconclusive: 14.1 µM [cytotoxic, single point]
- Potency (PA-1): inconclusive: 15.8 µM [cytotoxic, partial curve, poor fit]
- Potency (SKOV3): inconclusive: 0.631 µM [cytotoxic, full curve, poor fit]
- Potency (Tov112D): inconclusive: 22.4 µM [cytotoxic, partial curve, poor fit]

Compound: C[n+]1c2cc(N)ccc2cc2ccc(N)cc21 (tested in a mixture with another compound)
- Potency (Hek293T): active: 10 µM
- Potency (JEG-3): inconclusive: 25.1 µM [cytotoxic, single point]
- Potency (SKOV3): active: 12.6 µM
- Potency (Tov-21-G): active: 28.2 µM
- Potency (Tov112D): inconclusive: 25.1 µM [cytotoxic, single point]

Compound: Cc1cc2c(C(C)C)c(O)c(O)c(C=O)c2c(O)c1-c1c(C)cc2c(C(C)C)c(O)c(O)c(C=O)c2c1O
- Potency (Hek293T): inconclusive: 39.8 µM [cytotoxic, single point]
- Potency (OV90): inconclusive: 39.8 µM [cytotoxic, partial curve, poor fit]
- Potency (PA-1): inconclusive: 25.1 µM [cytotoxic, partial curve, poor fit]
- Potency (SKOV3): inconclusive: 39.8 µM [cytotoxic, partial curve, poor fit]

Compound: CN(C)C(=S)SC(=S)N(C)C
- Potency (Hek293T): inconclusive: 28.2 µM [cytotoxic, single point]
- Potency (OV90): active: 7.94 µM
- Potency (PA-1): inconclusive: 28.2 µM [cytotoxic, single point]
- Potency (SKOV3): active: 11.2 µM
- Potency (Tov-21-G): active: 8.91 µM
- Potency (Tov112D): active: 28.2 µM

Compound: COc1cccc2c1C(=O)c1c(O)c3c(c(O)c1C2=O)C[C@@](O)(C(=O)CO)C[C@@H]3O[C@H]1C[C@H](N)[C@H](O)[C@H](C)O1
- Potency (Hek293T): active: 7.94 µM
- Potency (JEG-3): active: 2.82 µM
- Potency (PA-1): inconclusive: 0.126 µM [cytotoxic, full curve, poor fit]
- Potency (SKOV3): active: 2.82 µM
- Potency (Tov-21-G): inconclusive: 1.58 µM [cytotoxic, full curve, poor fit]
- Potency (Tov112D): active: 0.891 µM

Compound: Oc1c(Cl)cc(Cl)c2cccnc12
- Potency (Hek293T): inconclusive: 35.5 µM [cytotoxic, single point]
- Potency (JEG-3): inconclusive: 22.4 µM [cytotoxic, single point]
- Potency (SKOV3): inconclusive: 14.1 µM [cytotoxic, partial curve]
- Potency (Tov-21-G): active: 28.2 µM
- Potency (Tov112D): inconclusive: 39.8 µM [cytotoxic, single point]

Compound: CN1CCC(COc2cnc(-c3cccc(Cn4nc(-c5cccc(C#N)c5)ccc4=O)c3)nc2)CC1
- Potency (Hek293T): inactive
- Potency (JEG-3): inconclusive: 39.8 µM [cytotoxic, single point]
- Potency (PA-1): inactive
- Potency (SKOV3): inactive

Compound: C#Cc1cccc(Nc2ncnc3cc(OC)c(OCCCCCCC(=O)NO)cc23)c1
- Potency (Hek293T): inconclusive: 7.94 µM [cytotoxic, partial curve, poor fit]
- Potency (JEG-3): active: 10 µM
- Potency (SKOV3): active: 8.91 µM
- Potency (Tov-21-G): active: 10 µM

Compound: COC(=O)c1cccnc1
- Potency (Hek293T): inactive
- Potency (JEG-3): inactive
- Potency (SKOV3): inconclusive: 0.282 µM [cytotoxic, full curve, poor fit]

Compound: CC(C)C[C@H](NC(=O)[C@H](Cc1ccccc1)NC(=O)c1cnccn1)B(O)O
- Potency (Hek293T): inconclusive: 28.2 nM and inconclusive: 28.2 nM [cytotoxic, full curve, poor fit]
- Potency (OV90): inconclusive: 0.891 µM
- Potency (PA-1): inconclusive: 794 µM and inconclusive: 100 µM
- Potency (SKOV3): active: 501 nM and inconclusive: 282 nM [cytotoxic, full curve, poor fit]
- Potency (Tov-21-G): inconclusive: 35.5 nM and inconclusive: 10 nM

Compound: COc1ccc(CN2CCN(C(c3ccc(F)cc3)c3ccc(F)cc3)CC2)c(OC)c1OC
- Potency (Hek293T): inconclusive: 39.8 µM [cytotoxic, single point]
- Potency (SKOV3): inconclusive: 17.8 µM [cytotoxic, partial curve, poor fit]

Compound: Cc1c(N(C)CS(=O)(=O)O)c(=O)n(-c2ccccc2)n1C
- Potency (Hek293T): inconclusive: 0.1 µM
- Potency (PA-1): inconclusive: 0.1 µM
- Potency (Tov-21-G): inconclusive: 3.16 µM
- Potency (Tov112D): inconclusive: 0.0891 µM

Compound: O=c1c(-c2ccccc2)c1-c1ccccc1
- Potency (Hek293T): inconclusive: 39.8 µM [cytotoxic, single point]
- Potency (OV90): inconclusive: 39.8 µM [cytotoxic, single point]
- Potency (PA-1): inconclusive: 35.5 µM [cytotoxic, single point]
- Potency (SKOV3): inconclusive: 14.1 µM [cytotoxic, partial curve, poor fit]
- Potency (Tov112D): inconclusive: 39.8 µM [cytotoxic, single point]

Compound: CNC(=O)c1ccccc1Nc1nc(Nc2ccc(N3CCOCC3)cc2OC)ncc1Cl
- Potency (Hek293T): inconclusive: 35.5 µM [cytotoxic, single point]
- Potency (SKOV3): active: 11.2 µM
- Potency (Tov-21-G): active: 12.6 µM
- Potency (Tov112D): inconclusive: 31.6 µM [cytotoxic, single point]

Compound: CC(C)(C)CC(C)(C)c1ccc(O)c(Cc2ccc(Cl)cc2Cl)c1
- Potency (Hek293T): inconclusive: 39.8 µM [cytotoxic, single point]
- Potency (SKOV3): inconclusive: 35.5 µM [cytotoxic, single point]

Compound: NC(=O)C(=O)N/N=C/c1ccc([N+](=O)[O-])o1
- Potency (Hek293T): inactive
- Potency (Tov-21-G): inactive

Compound: O=C1[C@H]2CCCC[C@H]2C(=O)N1CCCCN1CCN(c2nsc3ccccc23)CC1
- Potency (Hek293T): inconclusive: 17.8 µM [cytotoxic, partial curve, poor fit]
- Potency (Tov112D): inactive

Compound: Cc1cnc(Nc2ccc(F)cc2Cl)nc1-c1c[nH]c(C(=O)N[C@H](CO)c2cccc(Cl)c2)c1
- Potency (Hek293T): inconclusive: 39.8 µM [cytotoxic, single point]
- Potency (OV90): inconclusive: 5.62 µM [cytotoxic, full curve, poor fit]
- Potency (SKOV3): inconclusive: 35.5 µM [cytotoxic, single point]
- Potency (Tov112D): inconclusive: 17.8 µM [cytotoxic, partial curve, poor fit]

Compound: O=C(O)C[C@H](O)C[C@H](O)/C=C/c1c(C2CC2)nc2ccccc2c1-c1ccc(F)cc1
- Potency (Hek293T): inconclusive: 3.16 µM [cytotoxic, partial curve, poor fit]
- Potency (OV90): inconclusive: 11.2 µM [cytotoxic, partial curve, poor fit]
- Potency (SKOV3): inconclusive: 22.4 µM [cytotoxic, partial curve, poor fit]
- Potency (Tov-21-G): inconclusive: 35.5 µM [cytotoxic, single point]

Compound: CCCCCCCCCCCCCCCC[N+](C)(C)Cc1ccccc1
- Potency (Hek293T): inconclusive: 39.8 µM [cytotoxic, single point]
- Potency (PA-1): active: 15.8 µM
- Potency (SKOV3): inconclusive: 35.5 µM [cytotoxic, single point]
- Potency (Tov-21-G): inconclusive: 28.2 µM [cytotoxic, single point]
- Potency (Tov112D): inconclusive: 39.8 µM [cytotoxic, single point]

Compound: Nc1ncnc2nc[nH]c12
- Potency (Hek293T): inactive
- Potency (SKOV3): inconclusive: 39.8 µM [rising, partial curve, poor fit]

Compound: Nc1nc(Nc2ccc(S(N)(=O)=O)cc2)nn1C(=O)c1c(F)cccc1F
- Potency (Hek293T): inconclusive: 22.4 µM [cytotoxic, single point]
- Potency (OV90): inconclusive: 25.1 µM [cytotoxic, partial curve]
- Potency (PA-1): active: 28.2 µM
- Potency (SKOV3): inactive
- Potency (Tov-21-G): inconclusive: 15.8 µM [cytotoxic, partial curve, poor fit]
- Potency (Tov112D): inconclusive: 39.8 µM [cytotoxic, single point]

Compound: O=C(Nc1ncc([N+](=O)[O-])s1)c1cccs1
- Potency (Hek293T): inconclusive: 20 µM [cytotoxic, single point]
- Potency (PA-1): inconclusive: 35.5 µM [cytotoxic, single point]
- Potency (Tov-21-G): inconclusive: 11.2 µM [cytotoxic, partial curve]
- Potency (Tov112D): inconclusive: 35.5 µM [cytotoxic, single point]

Compound: O=[N+]([O-])c1ccc(O)c2ncccc12
- Potency (Hek293T): inconclusive: 35.5 µM [cytotoxic, single point]
- Potency (OV90): inconclusive: 31.6 µM [cytotoxic, single point]
- Potency (PA-1): inconclusive: 10 µM [cytotoxic, partial curve, poor fit]
- Potency (SKOV3): inconclusive: 6.31 µM [cytotoxic, full curve]
- Potency (Tov-21-G): inconclusive: 8.91 µM [cytotoxic, single point]
- Potency (Tov112D): active: 28.2 µM
